# In the supplement of paper PMC4166925:
# ± gives the standard deviation of the averaged measurements. The full ranking holds about 33,000 sequences; the median of “E-score (dimensionless, -0.5 to 0.5)” is about -0.046, and the highest 2% start at about 0.36. This is one part of the list.
# Tested on: T1, SpTbr T-box DNA-binding domain (GST fusion)
# T1 sequence: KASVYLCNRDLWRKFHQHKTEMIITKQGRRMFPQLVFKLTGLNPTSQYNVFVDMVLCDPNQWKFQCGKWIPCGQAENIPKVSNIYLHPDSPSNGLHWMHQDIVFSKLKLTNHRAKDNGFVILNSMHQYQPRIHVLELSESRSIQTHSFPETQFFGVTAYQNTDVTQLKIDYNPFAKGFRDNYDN
# Assay: PBM E-score of 8-mer (E-score (dimensionless, -0.5 to 0.5)); Tbr is Tbrain of the sea star Patiria miniata (Pm) or the sea urchin Strongylocentrotus purpuratus (Sp); higher = stronger binding preference; most listed sequences are background and not binding sites
# Conditions: the construct has about 5 more residues each side
# Outline: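 Each ungapped 8-mer received an enrichment E-score from the Universal PBM Analysis Suite, averaged over duplicate arrays. The proteins were Tbr T-box DNA-binding domains, covering the whole T-box plus about five flanking residues, fused to GST and expressed in BL21 E. coli at 20 °C before glutathione affinity purification. Universal Agilent oligonucleotide arrays were made double-stranded by primer extension and incubated with 200 nM protein in PBS (pH 7.5). The arrays were then scanned and quantified, and every 8-mer was scored from probe intensities.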
row,Sequence,PBM E-score of 8-mer
1,ATAGACCA,-0.202 ± 0.023
2,TCCCCAGA,-0.129 ± 0.009
3,ATCACCGA,0.125 ± 0.024
4,GCGAGTAA,0.139 ± 0.034
5,AATATATG,-0.236 ± 0.018
6,AGTACTCC,-0.202 ± 0.0054
7,CGTCAGCA,0.127 ± 0.045
8,ACACGGGC,-0.0843 ± 0.039
9,AATTTTCT,-0.327 ± 0.098
10,AACAGTCT,-0.139 ± 0.005
11,GATCTAAC,-0.0752 ± 0.046
12,ATAAATCC,-0.193 ± 0.015
13,CCCGATTC,-0.329 ± 0.011
14,AACAAAGT,0.109 ± 0.0069
15,ATTTGAAC,-0.161 ± 0.0035
16,ACACTGAC,0.197 ± 0.0044
17,CCCGCCAC,0.163 ± 0.064
18,AAAGGGCG,0.0609 ± 0.033
19,TACGCCAA,-0.0586 ± 0.029
20,CTTCGTCA,0.253 ± 0.02
21,CGATACAC,0.123 ± 0.0031
22,CGCCGAGA,0.0271 ± 0.022

row,Sequence,PBM E-score of 8-mer
1,ACCGTTCG,0.124 ± 0.052
2,CATCAGCA,-0.0609 ± 0.0023
3,CGTGGCTA,-0.0539 ± 0.033
4,GATCCATC,-0.126 ± 0.022
5,CATTGGGA,-0.0903 ± 0.027
6,AATCAATA,-0.154 ± 0.026
7,ACGAAGAC,0.00754 ± 0.041
8,CGCTCTGA,-0.162 ± 0.045
9,CCCCGGTC,-0.17 ± 0.029
10,CCCCTCCG,0.119 ± 0.066
11,AACCAATA,-0.0941 ± 0.053
12,AAGTGTTG,0.422 ± 0.02
13,AACGAACC,0.0448 ± 0.0011
14,TACAGTCA,-0.0793 ± 0.024
15,TGCCCCCA,-0.217 ± 0.088
16,CCAGTTGC,0.104 ± 0.014
17,ATCATTAA,-0.186 ± 0.0045
18,TGAGAGCA,0.0873 ± 0.054
19,ACAGCGAA,-0.139 ± 0.031
20,CAGTGTTC,0.0165 ± 0.024
21,AAATCTGT,0.165 ± 0.044
22,AAAATAGT,-0.102 ± 0.11

row,Sequence,PBM E-score of 8-mer
1,ATCTCGTC,0.235 ± 0.024
2,CCACTGCG,0.0281 ± 0.049
3,AGCCCAAG,-0.167 ± 0.068
4,GAGCGGCC,-0.0448 ± 0.082
5,ACAAGCGA,0.132 ± 0.024
6,CCTGATAC,-0.265 ± 0.017
7,GATCTCTA,-0.103 ± 0.024
8,CCTTCGAC,-0.0453 ± 0.042
9,ACTTAACG,0.237 ± 0.079
10,CACGCTGC,0.19 ± 0.028
11,CAAGAGGC,0.0193 ± 0.016
12,AGGTCCAC,-0.144 ± 0.13
13,AAAGCGGT,-0.113 ± 0.0042
14,ATGTTCGC,0.193 ± 0.0068
15,CACCTATG,0.427 ± 0.011
16,ACCTGTCA,0.3306 ± 0.0014
17,GCGTGCTA,0.21 ± 0.019
18,CTGCTCTA,-0.167 ± 0.047
19,ATAGATGG,-0.223 ± 0.052
20,CATGTTCC,-0.173 ± 0.085
21,ACACCTAG,0.444 ± 0.0087
22,CGGCACGA,-0.153 ± 0.027

row,Sequence,PBM E-score of 8-mer
1,CAATTATA,-0.239 ± 0.0056
2,CGCCTTTA,0.166 ± 0.095
3,CGGTAGTA,-0.0696 ± 0.0025
4,GCTTGTGA,0.202 ± 0.074
5,CCAGTCTA,-0.131 ± 0.024
6,GCTGCCTA,-0.101 ± 0.039
7,ACGGGTGC,0.188 ± 0.0078
8,AAATCTAC,-0.0549 ± 0.018
9,CTTCTACA,-0.196 ± 0.0035
10,CGCCAACA,0.253 ± 0.0096
11,CTTGTAAA,0.108 ± 0.095
12,GCAGGGAA,-0.0422 ± 0.065
13,AAAACCGT,0.0214 ± 0.018
14,AGCTTCCT,-0.262 ± 0.02
15,AATCGGAA,0.122 ± 0.024
16,GGGGAGGA,-0.163 ± 0.019
17,AGTAATGG,-0.0889 ± 0.056
18,ATGGTTGG,-0.0578 ± 0.074
19,AGGACCCG,-0.0395 ± 0.012
20,ATTTCGTG,0.0767 ± 0.045
21,GAACCTTA,-0.0824 ± 0.12
22,CTAACAGC,0.148 ± 0.015

row,Sequence,PBM E-score of 8-mer
1,ATAGCCGA,-0.123 ± 0.032
2,TCGTCCCA,-0.261 ± 0.0059
3,AACGCAGT,-0.0291 ± 0.029
4,ATTTGTAA,-0.0173 ± 0.028
5,CAGCCCTA,-0.17 ± 0.042
6,AATATATA,-0.0588 ± 0.083
7,GGGTTCAC,0.233 ± 0.072
8,ATGCTGTA,-0.242 ± 0.073
9,GAGTATCC,-0.216 ± 0.031
10,CATAGACC,-0.207 ± 0.053
11,GGGATCTA,-0.245 ± 0.029
12,ATGATCAG,-0.227 ± 0.02
13,GAGTATCA,-0.207 ± 0.063
14,TCGCATCA,0.202 ± 0.0061
15,CAGTAGTA,-0.0575 ± 0.012
16,ATGTGAAA,0.263 ± 0.03
17,ACCACCAA,0.0261 ± 0.018
18,AAGTGCTC,0.118 ± 0.051
19,CTCAGTGA,-0.103 ± 0.036
20,GCTGTAGA,-0.166 ± 0.067
21,ACAATTCT,0.0549 ± 0.028
22,ATCCGCAT,-0.148 ± 0.045
